The least precise scores are not listed. The source holds two more conditions with little spread; they are left out. Names with del lack the residues named; names with ins carry added residues between the positions named. For some of these results: The concentration of ogerin is not given here.
B1: GPR68, Q15743 (parent)
chain: MGNITADNSSMSCTIDHTIHQTLAPVVYVTVLVVGFPANCLSLYFGYLQIKARNELGVYLCNLTVADLFYICSLPFWLQYVLQHDNWSHGDLSCQVCGILLYENIYISVGFLCCISVDRYLAVAHPFRFHQFRTLKAAVGVSVVIWAKELLTSIYFLMHEEVIEDENQHRVCFEHYPIQAWQRAINYYRFLVGFLFPICLLLASYQGILRAVRRSHGTQKSRKDQIQRLVLSTVVIFLACFLPYHVLLLVRSVWEASCDFAKGVFNAYHFSLLLTSFNCVADPVLYCFVSETTHRDLARLRGACLAFLTCSRTGRAREAYPLGAPEASGKSGAQGEEPELLTKLHPAFQTPNSPGSGGFPTGRLA

Columns and labels:
[1] = variants of: B1; assay: cAMP reporter score (Enrich2 score, wild type = 0); higher = more signal; HEK293T, FACS bins
[2] = variants of: B1; assay: surface expression score (Enrich2 score, wild type = 0); higher = more signal; HEK293T, FACS bins

Variant | cAMP reporter score ([1]; pH 5.5) | cAMP reporter score ([1]; pH 6) | cAMP reporter score ([1]; pH 6, modulator: ogerin) | cAMP reporter score ([1]; pH 6.5, modulator: ogerin) | surface expression score [2]
MGNITADNSSMSCTIDHTIHQTLAPVVYVTVLVVGFPANCLSLYFGYLQIKARNELGVYLCNLTVADLFYICSLPFWLQYVLQHDNWSHGDLSCQVCGILLYENIYISVGFLCCISVDRYLAVAHPFRFHQFRTLKAAVGVSVVIWAKELLTSIYFLMHEEVIEDENQHRVCFEHYPIQAWQRAINYYRFLHGFLFPICLLLASYQGILRAVRRSHGTQKSRKDQIQRLVLSTVVIFLACFLPYHVLLLVRSVWEASCDFAKGVFNAYHFSLLLTSFNCVADPVLYCFVSETTHRDLARLRGACLAFLTCSRTGRAREAYPLGAPEASGKSGAQGEEPELLTKLHPAFQTPNSPGSGGFPTGRLA [V192H] | -0.187 | -0.922 | -1.11 | -0.546 | -1.92
MGNITADNSSMSCTIDHTIHQTLAPVVYVTVLVVGFPANCLSLYFGYLQIKARNELGVYLCNLTVADLFYICSLPFWLQYVLQHDNWSHGDLSCQVCGILLYENIYISVGFLCCISVDRYLAVAHPFRFHQFRTLKAAVGVSVVIWAKELLTSIYFLMHEEVIEDENQHRVCFEHYPIQAWQRAINYYRFLIGFLFPICLLLASYQGILRAVRRSHGTQKSRKDQIQRLVLSTVVIFLACFLPYHVLLLVRSVWEASCDFAKGVFNAYHFSLLLTSFNCVADPVLYCFVSETTHRDLARLRGACLAFLTCSRTGRAREAYPLGAPEASGKSGAQGEEPELLTKLHPAFQTPNSPGSGGFPTGRLA [V192I] | 0.146 | 0.272 | 0.98 | 1.04 | 0.382
